According to patent US20170137417A1 (priority 2014, published 2017):

Conditions: Log P, [b] LC-UV, neutral range, 0.001 molar ammonium acetate solution in water and acetonitrile as eluent

Structure (SMILES): C#CCOc1ccc(F)c(F)c1C1CC(c2csc(C3CCN(C(=O)Nc4cc(C)ccc4C)CC3)n2)=NO1 (stereo not shown) [Example I-3]
- chromatographic logP: 3.35
